According to PubChem BioAssay AID2451 (National Center for Advancing Translational Sciences (NCATS), 2010):
In all, about 290,000 compounds went through this assay and about 2,100 (0.72%) were called active. The inconclusive results got no clear call from the source; some entries with a clear call stand among them for comparison. Calls come from the whole dose curve; as a rule, active = well fitted inhibition curve with a large enough effect; inconclusive = small, poorly fitted or top-dose-only effect, or effect the other way; inactive = flat fitted curve, though single readings scatter. Where the call is inconclusive, the potency comes from a doubtful curve fit. Some compounds were tested as several samples or in several runs, with calls that do not always agree.

Each molecule was assayed against Fructose-bisphosphate aldolase (Giardia intestinalis (strain ATCC 50803 / WB clone C6)) (UniProt A8B2U2) (assay: qHTS Assay for Inhibitors of Fructose-1,6-bisphosphate Aldolase from Giardia Lamblia). Settings: purified Giardia FBPA; series mostly up to 59.6 µM.
Sequence of UniProt A8B2U2 (A8B2U2 whole entry, looked up): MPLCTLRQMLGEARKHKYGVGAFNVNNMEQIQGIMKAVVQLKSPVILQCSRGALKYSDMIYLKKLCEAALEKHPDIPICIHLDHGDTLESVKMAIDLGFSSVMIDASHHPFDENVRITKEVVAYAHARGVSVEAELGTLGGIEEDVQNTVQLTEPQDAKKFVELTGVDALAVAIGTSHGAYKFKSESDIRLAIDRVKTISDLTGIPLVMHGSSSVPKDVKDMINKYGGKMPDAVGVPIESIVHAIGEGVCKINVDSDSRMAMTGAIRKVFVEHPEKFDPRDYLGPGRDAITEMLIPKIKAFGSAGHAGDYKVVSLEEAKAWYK
In short: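 40 nM FBPA preincubated 10 min at RT with compound (up to 57.5 uM final), then substrate plus GAPDH/TPI/NAD/arsenate coupling and diaphorase/resazurin added. Fluorescence read after 20 min at RT, 525/598 nm.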
Note: nearly all actives have a fitted effect of over 55% in size.
Potency is the fitted concentration of half-maximal effect; tags give direction and shape of the fitted curve.

Row | Structure (SMILES) | Potency
1 | Cc1[nH]c(=O)[nH]c(=O)c1/C=N/NC(=O)[C@H](C)N | inconclusive: 31.5 µM [inhibitor, single point]
2 | Cc1ccc(NC(=S)N(CCCN2CCOCC2)Cc2ccco2)cc1 | inconclusive: 17.7 µM [inhibitor, single point]
3 | COc1ccc2c(c1OC)C(=O)N1C2SC(C)(C)[C@H]1C(=O)NCC(C)C (stereo not given in full) | inconclusive: 15.8 µM [inhibitor, partial curve]
4 | CCC(C)N1C(=O)S/C(=C/c2ccc3c(c2)n(C)c(=O)n3C)C1=O (stereo not given) | inactive
5 | c1ccc(OCCCN2CCCC2)cc1 | inconclusive: 15.8 µM [inhibitor, single point]
6 | CN(Cc1ccon1)C(=O)CC1C(=O)NCCN1CC(C)(C)C (stereo not given) | inconclusive: 14.1 µM [inhibitor, partial curve]
7 | CCOc1ccc(N(CC(=O)Nc2ccc(C)c(C)c2)S(C)(=O)=O)cc1 | inactive
8 | O=[N+]([O-])c1cccc2c[nH]nc12 | inconclusive: 22.3 µM [inhibitor, partial curve]
9 | Cc1cc(C)c(NC(=S)N(CCN(C)C)C(C)c2cccnc2)c(C)c1 (stereo not given) | inconclusive: 19.9 µM [inhibitor, single point]
10 | FC(F)(F)c1cccc(Cc2noc(CN3CCCC(CN4CCCC4)C3)n2)c1 (stereo not given) | inactive
11 | O=C(CSc1n[nH]c(-c2cccnc2)n1)Nc1cccc(Cl)c1 | inconclusive: 28.2 µM [inhibitor, single point]
12 | O=C(Nc1cccc2cccnc12)c1cccnc1 | inactive
13 | CC[n+]1c(/C=C2/C=C(C)CC(C)(C)C2)sc2ccc(OC)cc21 | inconclusive: 17.7 µM [inhibitor, partial curve]
14 | NC(=O)c1c(NC(=O)c2ccccc2)sc2c1CCN(Cc1ccccc1)C2 | active: 15.8 µM
15 | O=[N+]([O-])c1ccccc1OCCN1CCOCC1 | inconclusive: 25.1 µM [inhibitor, single point]
16 | CS(=O)(=O)N1CCc2cc(C(=O)NC3CC3)ccc21 | inactive
17 | COc1ccc(N2C3=C(CC4=C2CC(C)(C)CC4=O)C(=O)CC(C)(C)C3)cc1 | inconclusive: 5.61 µM [inhibitor, full curve]
18 | COc1ccc(Br)cc1CN1CCN(C(=O)c2ccc(OC)c(OC)c2)CC1 | inconclusive: 19.9 µM [inhibitor, partial curve]
19 | Cc1cccc(C(=O)Nc2nnc(S(=O)(=O)N3CCCCCC3)s2)c1 | inconclusive: 20 µM [inhibitor, partial curve]
20 | CN1CCN(S(=O)(=O)c2cc(C(F)(F)F)ccc2Cl)CC1 | inconclusive: 28.2 µM [inhibitor, single point]
21 | S=C(Nc1ccccc1)c1ccccn1 | active: 3.15 µM
22 | COc1ccc2[nH]c(C)c(CCNCc3cc(OC)c(OC)c(OC)c3)c2c1 | inconclusive: 17.7 µM [inhibitor, partial curve]
23 | CCC(C)(C)n1nnnc1C(c1ccc(OC)c(OC)c1)N1CCN(c2ccc(OC)cc2)CC1 (stereo not given) | inconclusive: 17.7 µM [inhibitor, single point]
24 | CCOc1ccc(OCC(=O)c2c(O)c3ccccc3oc2=O)cc1 | inconclusive: 15.8 µM [inhibitor, single point]

Row | Structure (SMILES) | Potency
25 | O=C(N/N=C/c1coc2ccccc2c1=O)c1cc(Br)ccc1O | inconclusive: 10 µM [activator, partial curve]
26 | CCOc1ccc(C(=O)NC(=S)NCc2cccnc2)cc1 | inactive
27 | Cc1ccccc1COc1ccc(/C(O)=C2/C(=O)C(=O)N(CCCn3ccnc3)C2c2ccco2)cc1 (stereo not given) | inconclusive: 28.1 µM [activator, single point]
28 | CC(C)OCCCNc1ncc2c(n1)CC(c1cccs1)CC2=O (stereo not given) | inconclusive: 22.3 µM [inhibitor, partial curve]
29 | CN1CCc2c(sc3nc(SCC(=O)NCc4ccco4)n(-c4ccccc4)c(=O)c23)C1 | inconclusive: 39.8 µM [inhibitor, single point]
30 | CCn1c(CNc2ccc(OC)cc2)nnc1SCC(=O)N1CCCc2ccccc21 | inconclusive: 6.29 µM [inhibitor, partial curve]
31 | Cc1ccc(C(=O)NC2(O)C(=O)c3ccccc3C2=O)cc1C | inconclusive: 19.9 µM [inhibitor, partial curve]
32 | Cc1ccc2c(N)c(C(=O)N(c3ccccc3)c3ccccc3)sc2n1 | inconclusive: 15.8 µM [inhibitor, single point]
33 | Oc1c(Br)cc(C=Nc2ccc3nc(-c4ccccc4)[nH]c3c2)c(O)c1Br | inconclusive: 5 µM [inhibitor, partial curve]
34 | CCC(c1nnc(SCCNCCO)n1CCN1CCOCC1)N(C)C (stereo not given) | inconclusive: 17.7 µM [inhibitor, single point]
35 | Nc1nnnn1/N=C/c1ccccn1 | inconclusive: 19.9 µM [inhibitor, single point]
36 | CCOc1cc(/C=C2\COc3ccccc3C2=O)ccc1OCC(=O)N(C)C | inactive
37 | CC(CN(C)Cc1ccccc1)OC(=O)c1cccc(F)c1 (stereo not given) | inconclusive: 15.8 µM [inhibitor, partial curve]
38 | Cc1ccc(OCCCCc2c(C)n[nH]c2C)cc1 | active: 20 µM
39 | O=C(Nc1nnc(-c2ccc(F)cc2)s1)c1c(F)cccc1Cl | inconclusive: 28.2 µM [inhibitor, partial curve]
40 | COc1ccc2[nH]c(=O)c(CNc3ccc(C)cc3C)cc2c1 | inconclusive: 14.1 µM [inhibitor, partial curve]
41 | COc1ccc(CN2CCN(S(=O)(=O)c3ccccc3)CC2)c(OC)c1 | inconclusive: 17.7 µM [inhibitor, single point]
42 | O=C(N/N=C/c1c(O)ccc2ccccc12)c1cccc(C(F)(F)F)c1 | inconclusive: 39.7 µM [activator, single point]
43 | CC1=C(Nc2ccc(C(=O)O)cc2)C(=O)c2ccccc2C1=O | inconclusive: 25.1 µM [inhibitor, single point]
44 | CCc1n[nH]c(=S)n1N=C1CCC(C)CC1 (stereo not given) | inconclusive: 15.8 µM [inhibitor, partial curve]
45 | Cc1ccccc1C(=O)NNC(=S)NC(=O)COc1ccccc1 | inconclusive: 39.7 µM [activator, single point]
46 | COc1ccc(OC)c(NC(=O)CCN2CCC(C)CC2)c1 | inconclusive: 17.7 µM [inhibitor, single point]
47 | Cc1cc(C)nc(NS(=O)(=O)c2ccc(Br)s2)c1 | inconclusive: 17.7 µM [inhibitor, partial curve]
48 | CCCCN(CC)c1nc(N)c(C#N)c(CC#N)c1C#N | inconclusive: 9.98 µM [inhibitor, partial curve]

Row | Structure (SMILES) | Potency
49 | O=C(COC(=O)c1cncc(Br)c1)NC1CCCCCC1 | inactive
50 | O=C(NNC(=S)Nc1ccc(Cl)cc1Cl)c1ccncc1 | inconclusive: 35.4 µM [activator, single point]
51 | CCOC(=O)CCc1c(C)c2ccc(OCc3nn[nH]n3)cc2oc1=O | inconclusive: 39.8 µM [inhibitor, single point]
52 | CC(C)Oc1cccc(-c2cc(C(=O)N3CCN(S(C)(=O)=O)CC3)c3ccccc3n2)c1 | inactive
53 | O=C(Nc1cc(S(=O)(=O)N2CCOCC2)ccc1N1CCCC1)c1ccc2c(c1)S(=O)(=O)c1ccccc1C2=O | inconclusive: 5 µM [inhibitor, single point]
54 | CC(=O)c1ccc(NC(=O)N2CCc3ccccc3C2)cc1 | inactive
55 | CCOC(=O)c1c(NC(=O)c2ccco2)n(C2CCCCC2)c2nc3ccccc3nc12 | inconclusive: 11.2 µM [inhibitor, partial curve]
56 | CC(=O)OCCN(CCCn1c(-c2ccncc2)nc2ccccc21)c1nc(CN2CCCCC2)cs1 | inconclusive: 20 µM [inhibitor, partial curve]
57 | Cc1c(C(=O)C(=O)N2c3ccccc3CC2C)c2ccccc2n1C (stereo not given) | inactive
58 | Clc1cccc(Nc2ncnc3c2cnn3-c2ccccc2)c1 | inconclusive: 15.8 µM [inhibitor, single point]
59 | N#CCC(=O)Nc1ccc(C(=O)NCCC(c2ccccc2)c2ccccc2)cc1 | inactive
60 | Cc1ccc(C)c(C(C)NC(=S)NCc2ccc(F)cc2)c1 (stereo not given) | inactive
61 | CC(Oc1ccc(Cl)cc1Cl)c1nc(-c2ccc(NC(=O)c3ccco3)cc2)no1 (stereo not given) | inactive
62 | CC(=O)Nc1cc(N=Cc2ccc(O)cc2O)c(Cl)cc1Cl | inconclusive: 17.7 µM [inhibitor, single point]
63 | Cc1cc(NC(=O)c2sccc2C)n(-c2nc3ccccc3[nH]2)n1 | active: 15.8 µM
64 | O=[N+]([O-])c1ccc(Oc2cccc(F)c2)c2ccncc12 | inconclusive: 15.8 µM [inhibitor, single point]
65 | CCCNC(=O)c1c(N)n(CC2CCCO2)c2nc3ccccc3nc12 (stereo not given) | inconclusive: 4.46 µM [inhibitor, partial curve]
66 | O=C(Cc1ccccc1)Nc1ccc(NC(=O)c2ccccc2)nc1 | inactive
67 | COc1cc(NC(=O)CSc2ncnc3sc4c(c23)CCCC4)c(C(=O)O)cc1OC | inactive
68 | O=C(CS(=O)(=O)c1cn(CC(=O)N2CCOCC2)c2ccccc12)NCc1ccc(F)cc1 | inconclusive: 31.6 µM [inhibitor, partial curve]
69 | CC(=O)n1cc([C@H]2C=C(C(=O)N3CCN(Cc4ccccc4)CC3)O[C@@H](OCc3ccc(CO)cc3)C2)c2ccccc21 | inconclusive: 15.8 µM [inhibitor, single point]
70 | CN(C)c1ccc(-c2cncnc2NCCN2CCOCC2)cc1 | inconclusive: 15.8 µM [inhibitor, partial curve]
